In one test the test system is HSkMC. In words: cytotoxicity call (relative viability < 0.9). Conditions: 10 µM.
A further test concerns HepG2. In words: cytotoxicity call (relative viability < 0.9). The note with it: 10 µM.
In a further test the test system is S. aureus RN4220. In words: growth inhibition call (relative growth <= 0.2). The note with it: 50 µM.

The list shows a part of the results.

For `COc1ccc(CN(C)C[C@H]2OCCCC[C@H](C)Oc3ccc(NC(=O)Nc4ccc(F)cc4)cc3C(=O)N([C@H](C)CO)C[C@H]2C)cc1`, in the test on HSkMC, the cytotoxicity call is “inactive”. For the same compound, in the test on HepG2, the cytotoxicity call is “active”. Also, the growth inhibition call in the test on S. aureus RN4220 was “inactive”.
As to `COC(=O)c1ccc[nH]1`, the cytotoxicity call with HSkMC and with HepG2 was “inactive” each time. In addition, the growth inhibition call in the test on S. aureus RN4220 is “inactive”.
In the case of `O=C(O)c1cc(=O)[nH]c(=O)[nH]1`, the cytotoxicity call with HSkMC and in the test on HepG2 was “inactive” in each case. In addition, the growth inhibition call in the test on S. aureus RN4220 is “inactive”.
Consider `C[C@@H]1CN([C@H](C)CO)C(=O)c2cc(NC(=O)c3ccncc3)ccc2O[C@@H](C)CCCCO[C@@H]1CN(C)C(=O)C1CCCCC1`, for which the cytotoxicity call with HSkMC and in the test on HepG2 was “inactive” throughout. Also, in the test with S. aureus RN4220, the growth inhibition call was “inactive”.
`COc1ccc(NC(=O)Nc2ccc3c(c2)C(=O)N([C@@H](C)CO)C[C@@H](C)[C@@H](CN(C)S(=O)(=O)c2cccs2)OCCCC[C@@H](C)O3)cc1`: the cytotoxicity call in the test with HSkMC and in the test on HepG2 was “inactive” in each case. Also, the growth inhibition call with S. aureus RN4220 is “inactive”.
With `C[C@@H]1CCCCO[C@H](CN(C)C(=O)CCC(F)(F)F)[C@H](C)CN([C@H](C)CO)C(=O)c2cc(NS(=O)(=O)c3ccccc3)ccc2O1`, the cytotoxicity call with HSkMC and in the test with HepG2 was “inactive” throughout. Besides, the growth inhibition call with S. aureus RN4220 is “inactive”.
Take `C[C@H]1CN([C@@H](C)CO)C(=O)c2cc(NC(=O)CCCCCC(=O)Nc3ccccc3N)ccc2O[C@@H]1CN(C)S(C)(=O)=O`: the cytotoxicity call in the test on HSkMC and in the test on HepG2 was “inactive” each time. Moreover, the growth inhibition call with S. aureus RN4220 is “inactive”.
In the case of `O=C([O-])P(=O)([O-])[O-].[Na+].[Na+].[Na+]`, the cytotoxicity call in the test on HSkMC and with HepG2 was “inactive” throughout. For the same compound, the growth inhibition call in the test with S. aureus RN4220 is “inactive”.
`C[C@@H]1CCCCO[C@@H](CN(C)C(=O)C2CCCCC2)[C@@H](C)CN([C@H](C)CO)C(=O)c2cc(NC(=O)Nc3ccccc3)ccc2O1`: the cytotoxicity call with HSkMC and with HepG2 was “inactive” throughout. Besides, the growth inhibition call in the test with S. aureus RN4220 is “inactive”.
As to `Cc1ccc(S(=O)(=O)Nc2ccc3c(c2)C(=O)N([C@@H](C)CO)C[C@H](C)[C@H](CN(C)Cc2ccc4c(c2)OCO4)OCCCC[C@@H](C)O3)cc1`, the cytotoxicity call with HSkMC and with HepG2 was “inactive” throughout. Besides, the growth inhibition call in the test with S. aureus RN4220 was “inactive”.
Turning to `C[C@@H]1CN([C@@H](C)CO)C(=O)c2cc(NC(=O)Nc3ccc(C(F)(F)F)cc3)ccc2O[C@@H](C)CCCCO[C@H]1CN(C)C(=O)Nc1ccccc1`, the cytotoxicity call with HSkMC and with HepG2 was “inactive” each time. The growth inhibition call in the test with S. aureus RN4220 is “inactive”.
For the compound `CCCCCCCCCCCC=C=CCCCC(=O)O`, the cytotoxicity call in the test on HSkMC and in the test with HepG2 was “inactive” each time. The growth inhibition call with S. aureus RN4220 is “inactive”.
`CCN(CC)CCOC(=O)C(Cc1cccc2ccccc12)CC1CCCO1.O=C(O)C(=O)O` (stereo unspecified): the cytotoxicity call with HSkMC was “inactive”. In addition, the cytotoxicity call in the test on HepG2 was “active”. For the same compound, the growth inhibition call in the test with S. aureus RN4220 was “inactive”.
For the compound `Cc1noc(C)c1S(=O)(=O)Nc1ccc2c(c1)C(=O)N([C@@H](C)CO)C[C@H](C)[C@H](CN(C)S(=O)(=O)c1cn(C)cn1)OCCCC[C@@H](C)O2`, the cytotoxicity call in the test with HSkMC and in the test with HepG2 was “inactive” throughout. For the same compound, the growth inhibition call in the test on S. aureus RN4220 was “inactive”.
With `C[C@@H]1CN([C@H](C)CO)C(=O)c2cc(NC(=O)c3ccccc3)ccc2O[C@@H](C)CCCCO[C@@H]1CN(C)Cc1ccc2c(c1)OCO2`, the cytotoxicity call with HSkMC was “inactive”. For the same compound, the cytotoxicity call in the test with HepG2 is “active”. Also, the growth inhibition call in the test on S. aureus RN4220 is “inactive”.
For `COc1ccc(S(=O)(=O)N(C)C[C@H]2Oc3ccc(NC(=O)Nc4c(C)noc4C)cc3CC(=O)N([C@@H](C)CO)C[C@@H]2C)cc1`, the cytotoxicity call with HSkMC and in the test on HepG2 was “inactive” each time. Moreover, the growth inhibition call in the test with S. aureus RN4220 was “inactive”.
Turning to `COc1ccc(CN(C)C[C@@H]2OCCCC[C@H](C)Oc3ccc(NC(=O)c4ccccc4)cc3C(=O)N([C@@H](C)CO)C[C@H]2C)cc1`, the cytotoxicity call with HSkMC and in the test with HepG2 was “inactive” throughout. Besides, the growth inhibition call in the test on S. aureus RN4220 was “inactive”.
Take `CCc1nc2c(OCC(=O)c3ccc(Cl)cc3Cl)cccn2c1N(C)C(=O)COc1ccccc1`: the cytotoxicity call in the test on HSkMC is “inactive”. Further, in the test with HepG2, the cytotoxicity call was “active”. The growth inhibition call with S. aureus RN4220 is “inactive”.
As for `Cc1ccc(S(=O)(=O)N(C)C[C@@H]2Oc3ccc(NS(=O)(=O)c4ccccc4)cc3CC(=O)N([C@@H](C)CO)C[C@@H]2C)cc1`, the cytotoxicity call with HSkMC and with HepG2 was “inactive” each time. Further, the growth inhibition call with S. aureus RN4220 was “inactive”.
Take `C[C@H](CO)N1C[C@H](C)[C@@H](CN(C)S(C)(=O)=O)Oc2ccc(NS(=O)(=O)c3ccc(F)cc3)cc2CC1=O`: the cytotoxicity call with HSkMC and in the test on HepG2 was “inactive” each time. Besides, the growth inhibition call with S. aureus RN4220 is “inactive”.
In the case of `C[C@H](CO)N1C[C@H](C)[C@@H](CN(C)Cc2ccc(Cl)c(Cl)c2)Oc2c(NC(=O)Nc3ccc4c(c3)OCO4)cccc2C1=O`, the cytotoxicity call in the test with HSkMC was “active”. Besides, the cytotoxicity call in the test on HepG2 is “inactive”. Besides, the growth inhibition call in the test on S. aureus RN4220 is “inactive”.
Regarding `COC(=O)C1=CO[C@@H](O[C@@H]2O[C@H](CO)[C@@H](O)[C@H](O)[C@H]2O)[C@H]2[C@@H]1[C@H](OC(C)=O)C[C@]2(C)OC(C)=O`, the cytotoxicity call with HSkMC and with HepG2 was “inactive” each time. Further, the growth inhibition call in the test on S. aureus RN4220 was “inactive”.
Regarding `C[C@H](CO)N1C[C@H](C)[C@H](CN(C)C(=O)Nc2ccc(C(F)(F)F)cc2)OCCCC[C@H](C)Oc2ccc(NC(=O)Cc3ccccc3)cc2C1=O`, the cytotoxicity call in the test with HSkMC and in the test with HepG2 was “inactive” throughout. Besides, the growth inhibition call in the test with S. aureus RN4220 is “inactive”.
Consider `CC(C)NC(=O)N(C)C[C@@H]1Oc2ccc(NC(=O)Cn3cnnn3)cc2CC(=O)N([C@H](C)CO)C[C@H]1C`, for which the cytotoxicity call with HSkMC and in the test on HepG2 was “inactive” in each case. In addition, in the test on S. aureus RN4220, the growth inhibition call was “inactive”.
Consider `CN1CCN(C(=O)C[C@@H]2CC[C@@H]3[C@H](COC[C@H](O)CN3Cc3ccc(Oc4ccccc4)cc3)O2)CC1`, for which the cytotoxicity call in the test with HSkMC and in the test on HepG2 was “inactive” in each case. Moreover, in the test on S. aureus RN4220, the growth inhibition call was “inactive”.
For the compound `O=C(C[C@H]1CC[C@H]2[C@@H](COC[C@@H](O)CN2C(=O)c2cccnc2)O1)NCc1ccc(-c2ccccc2)cc1`, the cytotoxicity call with HSkMC and with HepG2 was “inactive” in each case. Moreover, the growth inhibition call in the test with S. aureus RN4220 is “inactive”.
For `C[C@H](CO)N1C[C@H](C)[C@@H](CN(C)C(=O)Nc2ccc(F)cc2)Oc2ccc(NC(=O)CCCCCC(=O)Nc3ccccc3N)cc2C1=O`, the cytotoxicity call in the test on HSkMC (human skeletal muscle cells) and in the test with HepG2 was “inactive” each time. Besides, the growth inhibition call with S. aureus RN4220 was “inactive”.

The values above are taken from the antibiotic and cytotoxicity screens of Wong et al. (2023).
